From patent US20070128193A1, “GLP-1 agonists, compositions, methods and uses” (priority 2004, published 2007)

Experiments:
RIN-m cells = assay: Cytokine-induced apoptosis in RIN-m cells (Cell Death ELISA); assay type: cell-based; settings: serially diluted from 100 nM; TNFα 10 ng/mL or IL-1β 4 ng/mL, 16 hours
Experimental: RIN-m cells were seeded at 50,000 cells/well in 96 well plates and incubated at 37° C. overnight. The following day, cells were treated with a dose range of GLP-1 MMB (serially diluted from 100 nM) for 30 minutes before the addition of the cytokines TNFα (10 ng/mL) or IL-1β (4 ng/mL). The plates were incubated at 37° C. for 16 hours. To assay apoptosis the Cell Death ELISA-Plus assay kit (Roche Applied Science, Cat. No. 11920685001) was used. Media was aspirated from the wells, 200 μL of lysis buffer was added to each well, and the plate was incubated for 30 minutes at room temperature. After incubation, 20 μL of lysate was transferred to a streptavidin coated 96 well microtiter plate. 80 μL of immunoreagent (1:20 dilutions of the anti-histone-biotin and anti-DNA-peroxidase in the incubation buffer provided) was also added to each well. The 100 μL suspension was then incubated at room temperature for 2 hours, shaking gently. After 2 hours, the plates were washed three times with incubation buffer and development solution was added to the plates. Absorbance was read at 405 nm after approximately five minutes.

INS-1E cells = assay: Glucose-dependent insulin secretion in INS-1E cells; assay type: cell-based
Experimental: GLP-1 MMB Increases Glucose-Dependent Insulin Secretion in INS-1E Cells. INS-1E cells were plated in 24-well plates at a cell density of 200,000 cells/well in RPMI 1640+10% FBS+1% L-glutamine+1% Sodium Pyruvate+1% Non-essential Amino Acids+50 μM β-Mercaptoethanol media. The cells were allowed to grow for 7 days at 37° C. and 5% CO2 and were fed on day 3 or 4. The cells were washed twice with 0.4 ml of KRBH buffer/3 mM glucose and allowed to incubate in this buffer for 30-60 minutes. The media was removed from the cells and 0.4 ml of test article in KRBH with the appropriate amount of glucose was added per well. Twenty microliters of supernatant was removed per well for the T=0 time point and following incubation for 60 minutes at 37° C. at 5% CO2 for insulin measurements. Insulin concentrations were determined using a rat standard curve (12.8-0.1 ng/ml) with the Ultra Sensitive Rat Insulin ELISA kit (Crystal Chem). Five microliters of a 1:50 dilution of the time point supernatants were used in the assay in order to obtain values that fell on the standard curve. ELISA plates were read at OD450 subtracting the OD630 on a Molecular Devices SpectraMax 340PC plate reader.

rat islets = assay: Glucose-dependent insulin secretion in rat islets; assay type: cell-based; settings: 50 nM, glucose 3.5 mM or 15 mM, 4 hours
Experimental: (§1) GLP-1 MMB Increases Glucose-Dependent Insulin Secretion in Rat and Human Islets. Rat islets were obtained by collagenase digestion followed by Ficoll gradient purification. Human islets were isolated using an enzymatic digestion and density gradient purification described in detail in Ricordi et al. Diabetes (1998) 37; 4, 413-420. Islets were plated overnight in CMRL-1066 (Gibco), pen/strep (5,000 units/5,000 μg), 10% FBS, 1% L-Glutamine 25 mM HEPES, pH 7.2-7.4 media in a 20×100 mm petri dish, and cultured at 37° C. in 5% CO2 for 18 to 24 hours. The following day, islets were swirled to center of dish and collected into a 50 mL conical tube. The islets were allowed to settle to the bottom of the tube by gravity for approximately 10-15 minutes. The supernatant was removed, Functionality/Viability media (MediaTech, cat#99-786-CV) was added and islets were allowed to settle to the bottom of the tube by gravity. The islets were washed for a total of three times. The supernatant was removed and the islets were resuspended at a density of 20 islets per mL in Functionality/Viability media containing 1% BSA, 1% L-Glutamine, 1% pen/strep and 0.5 mM glucose solution. One mL of cell suspension (˜20 islets) was added to each well of a 24 well plate and incubated for 2 hrs at 37° C. in 5% CO2. […]

human islets = assay: Glucose-dependent insulin secretion in human islets; assay type: cell-based; settings: 50 nM, glucose 3.5 mM or 15 mM, 4 hours
Experimental: as §1

normal C57BLK/6 mice = assay: Blood glucose and body weight of normal C57BLK/6 mice; assay type: in vivo; settings: 0.5 mg/kg daily IP for 10 days
Experimental: The effects of GLP-1 MMB on the blood glucose of normal mice. Normal C57BLK/6 mice were randomized into two groups with each group having 13 animals. Group1 received daily intraperitoneal (IP) doses of PBS vehicle or GLP-1 MMB (0.5 mg/kg). Both groups were treated for 10 days. The mice were monitored daily for body weight and blood glucose was monitored (LifeScan, Calif.) for 32 days at which point the study was terminated.

db/db mice = assay: Insulin staining of pancreas in db/db mice after single dose; assay type: in vivo; settings: single 1.5 mg/kg s.c.
Experimental: GLP-1 MMB Protects Decline of Diabetic Mouse β-cells. Mice (12 week old db/db) were fasted overnight. On day 1 of the study, mice (4 groups; n=5/group) were dosed s.c. with GLP-1 MMB (1.5 mg/kg) or a negative control mimetibody. On day 4 of the study, fasting blood glucose was measured and an OGTT (oral glucose tolerance test) was performed. Blood glucose levels were measured at 15, 30, 60, 90, 120, 150 and 180 min using tail vein blood. Mice were euthanized and pancreata were removed and fixed by immersion in 10% neutral buffered formalin. The pancreas from each mouse was embedded in paraffin and sectioned for staining by H&E and immunohistochemistry. […] The experiment was repeated with the mice sacrificed 14 days after dosing to evaluate the longevity of the single dose of GLP-1 MMB.

[1] = test system: diabetic nude mice transplanted with human islets; assay: Marginal mass transplant of human islets in STZ diabetic nude mice; assay type: in vivo; settings: 0.5 mg/kg daily IP
Experimental: The effects of GLP-1 MMB on the efficacy of a marginal mass transplant of human islets in diabetic immunocompromised mice. Athymic nu/nu (nude) mice were purchased from Harlan Laboratories. Animals were housed in Virus Antibody Free rooms in micro-isolated cages with free access to sterilized food and water. All experiments were conducted in accordance with the standards set forth in the Guide for the Care and Use of Laboratory Animals.
Diabetes was induced by intravenous administration of streptozotocin (200 mg/kg) freshly dissolved in citrate buffer. Induction of diabetes was confirmed by monitoring non-fasting glycemic values after induction and only animals with values ≧350 mg/dL were used as recipients. After transplantation of a marginal islet mass (≈50 IEQ/g body weight), meaning a mass that is not sufficient to immediately render the recipient normoglycemic, the animals were monitored for graft function by measuring non-fasting glycemic values daily in the first week post-transplant, and up to 3 times a week thereafter. Interventions that improve islet engraftment, viability, and function will reduce the time to achieve normoglycemia in animals transplanted with a marginal islet mass. […]
Animals were considered euglycemic when non-fasting glycemic values were ≧200 mg/dL on at least 2 consecutive readings. […]

nonhuman primate islets = assay: Glucose-induced insulin secretion of nonhuman primate islets (dynamic stimulation, perifusion); assay type: cell-based; settings: cultured two days with 50 nM; 11-mM glucose stimulation
Experimental: The effects of GLP-1 MMB on the insulin secretion in response to glucose in nonhuman primate islets. Nonhuman primate islets were isolated using an enzymatic digestion and density gradient purification and were divided into two groups and cultured at 37° C. in humidified mixed 95% air/5% CO2 in non-tissue culture treated 175 cm^2 flasks (Corning, Mass.) at a density of ≈20,000 IE. One group of islets was cultured alone and the other group was cultured in MM1 supplemented with 50 nM GLP-1 MMB.
Following two days of culture, the islets were collected and a sample of islets (2 from control and 1 from GLP-1 MMB groups) was subjected to a dynamic stimulation assay to evaluate the effects of glucose concentration on the insulin secretion of the islets. Islets were pre-perifused in a chromatography column (Bio-gel Fine 45-90 nm; Bio-Rad) with a buffer containing 125-mM NaCl, 5.9-mM KCl, 1.28-mM CaCl2, 1.2-mM Mg Cl2, 25-mM HEPES, 0.1% bovine serum albumin and 3-mM glucose for 20 min, at 37° C. Islets were perifused in the same buffer for 10 min and then sequentially exposed to 11-mM and 3-mM glucose. Fractions of the perfusate were collected every 2 min during perfusate with 3-mM glucose, and every minute during stimulation. The concentration of insulin in each fraction was assayed by ELISA.

[2] = test system: diabetic cynomolgus monkeys transplanted with a marginal islet mass; assay: Allogeneic islet marginal mass model in STZ diabetic cynomolgus monkeys; assay type: in vivo, cynomolgus monkey; settings: 0.2 mg/kg subcutaneously two times per week
Text: The effects of GLP-1 MMB on allogeneic islet engraftment and long-term survival in a cynomolgus monkey marginal mass model. The use of a non-human primate marginal mass model enables one to study transplant approaches that have the potential to allow for reversal of diabetes with a reduced number of islets. In the marginal mass model, approximately 5,000 IEQ/kg, or half the number (usually 10,000 IEQ/kg) required to achieve normoglycemia, are transplanted. By utilizing islets obtained from the same allogeneic donor one eliminates donor and isolation variables.
Recipients were 2-3 year old cynomolgus monkeys of Mauritian origin; donors of the same strain were >4 years of age. Diabetes was induced with 1250 mg/m^2 streptozotocin. […]
The donor organ was harvested and islets isolated via the semi-automated method referenced in Example A and Example B, followed by 2 overnight culture periods, first at 37° C. and then at 22° C. […] Animals were monitored twice a day to determine fasting and post-prandial blood glucose levels (heel stick, glucometer) and treated with insulin as needed to maintain blood glucose in the 100-200 mg/dl range post-transplant. Fasting c-peptide was determined every other week and intravenous glucose tolerance testing (IVGTT) was done every 8 weeks to assess graft function.

B1: GLP-1 MMB: GLP-1 mimetibody, abbreviated MMB; construct not specified in Examples 16-23 (protein)
chain: HAEGTFTSDVSSYLEGQAAKEFIAWLVKGRGGGSGGGSGTLVTVSS[human IgG1 Fc not printed]
protection from cytokine-induced apoptosis (RIN-m cells): protect RIN-m cells from apoptosis induced by TNF-α or IL-1α | insulin secretion in INS-1E cells (INS-1E cells; 60 minutes): increased insulin secretion in a dose-dependent manner but only in the presence of elevated glucose | EC50 (INS-1E cells; INS-1E cells, 5.5 mM glucose, fit to a Hill equation, read-out: EC50, insulin secreted): 70 pM | insulin secretion from rat islets (rat islets): significantly increases insulin secretion | insulin secretion from human islets (human islets): significantly increases insulin secretion | blood glucose of normal mice (normal C57BLK/6 mice): lower blood glucose during the course of the 10-day treatment as compared to the PBS treated mice | body weight gain (normal C57BLK/6 mice; 32 days study): identical body weight gain | intensity of insulin staining, day 4 (db/db mice; 12 week old db/db mice): significantly higher intensity of insulin staining | intensity of insulin staining, 14 days after dosing (db/db mice; db/db mice): higher intensity of insulin staining | time to normoglycemia after marginal mass human islet transplant [1]: achieved normoglycemia more rapidly relative to the control mice | glucose stimulated insulin secretion, nonhuman primate islets (nonhuman primate islets): significant increase in glucose stimulated insulin secretion | HgbAlc [2]: rapid reduction in the HgbAlc | exogenous insulin requirements ([2]; islets cultured with 50 nM): significant reduction in exogenous insulin requirements
